The values that follow come from the supplement of paper PMC10126150.

Sequences with one replicate were seen in a single cluster, so their values are uncertain.

The data set deals with ATP. The data set is described as follows: switch fluorescence ratio, 500 uM ATP over buffer (Cy3 cluster intensity, sum of 5 cycles each) (fold (ratio)); higher = stronger signal-on switching upon ATP binding; sequences stand for … in TCGTCGGCAGCGTCAGATGTGTATAAGAGACAGTTTTTTTTTTTTTTTTTTTTTTTTT…TC. As to conditions: aptamer strand: ATP DNA aptamer (quencher-CACCTGGGGGAGTATTGCGGAGGAAGG + anchor), 100 nM annealed; ATP concentration: 500 uM; one replicate. A digest of the protocol:
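Exposure to 500 uM ATP lasted 15 min at 22 °C before imaging, and a selection-buffer image was taken beforehand, for Cy3-labelled switching-strand clusters on a modified Illumina MiSeq flow-cell annealed to 100 nM quencher-labelled ATP aptamer. Five buffer/ATP cycles were run with NaOH stripping and re-annealing between them. The fluorescence ratio per cluster is summed target-cycle over summed buffer-cycle Cy3 intensity, averaged per switch-domain sequence. Clusters outside 100-1000 RFU were excluded.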
ACCAAACTGG: the switch fluorescence ratio is 1.03.
The figure for ACATCAGAG is 0.989.
For AGGCGACAAA the value was 0.993.
For CAAGCTTTTA the value was 1.02.
ACATCGCTAT: the switch fluorescence ratio was determined as 1.41.
The figure for TTGGAGACTT is 0.981; for TAGAGTGCTA it is 0.973; for AAGTAGATTA it is 1.
The figure for CTGCTGAGTG is 1.02.
Consider TCCTGTCGTT, for which the switch fluorescence ratio amounted to 0.996.
Take AACAGGTTCG: the switch fluorescence ratio is 1.08.
For AAGAGATTCA the value was 0.985; for CGGAGTCTGG, 1.02.
The figure for TCGGGAGGAT is 0.994; for ATATCGGGCA it is 0.971; for GTTTATTGCA it is 0.962.
As for TTGCGGTCCT, the switch fluorescence ratio came out at 1.02.
For ACACGTACGC the value was 1.66; for TGGCACGTTA, 1.07.
For CAGTACTTAC the value was 1.17.
The figure for ACACATTGTA is 0.986.
Consider CCATAAAGG, for which the switch fluorescence ratio is 1.16.
For GCAACCCAGC the value was 1.05; for TGCAGAGCTA, 0.993.
Take GTGAAAACGG: the switch fluorescence ratio was 1.07.
For GCTCTAGGGT the value was 0.992; for GGTTCGGGCC, 1.01.
For GCCCTCGGGA the value was 1.02; for TGGGTAGTCC, 1.05; for CTGTTTTGGC, 0.984.
The figure for CTGGCCGTAA is 1.24; for ATCGAACTCG it is 1.01; for GGCTACAGTT it is 0.959.
For the sequence CTGTTACGTA, the switch fluorescence ratio is 1.1.
The figure for TTTCAGGCAA is 1.24.
For ACCCGTGGCA the value was 1.07; for GGAACAGAAT, 0.989.
For CTTGGAGGGC the value was 0.997.
Regarding CAATCAATTT, the switch fluorescence ratio came out at 1.
The figure for TCCTGCGGCT is 1.01.
The figure for TAGCATGAAG is 0.978; for TAGATGGCTG it is 1.08; for TCGCACGCCT it is 1.11.
The figure for TATGTATTC is 0.999; for AGAATTGGGC it is 0.985; for GGGTAATGT it is 1.02.
Consider GAAGCATTGT, for which the switch fluorescence ratio was found to be 1.11.
The figure for AGATAGAACG is 1.01; for TGATATATTA it is 0.929; for CCGTTGGGCG it is 1.01.
For TGTTCTGAAT the value was 1; for GAGGTGGCGA, 0.962.
The figure for TCGTTTTGGA is 0.981; for TTTTTGCCAT it is 1; for CGTCGGAACC it is 1.
Consider GCACGCGATC, for which the switch fluorescence ratio was determined as 3.64.
On to CTAATTATG, for which the switch fluorescence ratio was 1.05.
Regarding AAGCATTAGG, the switch fluorescence ratio worked out at 1.02.
For TGCCCTAGGA the value was 1.03; for ACTTCCTTT, 1.07; for CGAGGGTATA, 1.32.
For ACGGTAATAG the value was 1.38.
The figure for GCAAAACCCC is 1.18; for AGTGTCGGCG it is 0.995.
In the case of CAGAGCTCTG, the switch fluorescence ratio came out at 0.973.
The figure for GGCAGTGTGG is 0.971.
The figure for GAAACGATGG is 0.99; for TGTGGGGGA it is 0.976.
As to ACAATCATTA, the switch fluorescence ratio was 0.985.
AGAATAGACC: the switch fluorescence ratio was determined as 0.987.
Turning to GGGCCTGCTG, the switch fluorescence ratio came to 0.974.
Turning to TAGAGATTCT, the switch fluorescence ratio was 1.
For ACCATGAGTT the value was 1.01; for GTTAATCGTG, 0.949; for TAATGCTCCT, 1.68.
The figure for CTTGGGGAGG is 1.05.
For CTGTTTCACG the value was 0.972; for TGGCACGGCG, 1.01.
Turning to ACGAGGAGAT, the switch fluorescence ratio stood at 1.02.
The figure for AGTGGGTTGT is 0.968.
For AGGGTTAAAA the value was 0.98; for ATCTCGTCAC, 1.03.
For GATGGGATAA the value was 1.01.
For GATGAAAATC, the switch fluorescence ratio amounted to 0.98.
The figure for GTCAGTGTAA is 1.03.
GTCTTGTGGG: the switch fluorescence ratio worked out at 1.06.
The figure for ATATCCGATG is 1.
For GGATTGCCTA the value was 0.977.
The figure for CCGGTTCTCG is 1.04; for CAGTGAGCCG it is 0.987.
On to TATTTGAGAT, for which the switch fluorescence ratio was 0.998.
The figure for TCTACCGGTC is 1.05; for AGGGTAACCG it is 1.03.
Consider TTTATCAAGT, for which the switch fluorescence ratio was 0.945.
The figure for GGCGTAAA is 0.946.
The figure for CGTGGACCAG is 0.982.
The figure for AAAGGACAAG is 0.995.
AAAGGTCGCG: the switch fluorescence ratio amounted to 0.991.
For the sequence AAAGAGACCC, the switch fluorescence ratio is 0.943.
The figure for GACGTGCTCT is 0.987; for TTTCTGAAAT it is 1.08.
The figure for TTTTGGCGAT is 1.06.
In the case of CTTAGGAGAA, the switch fluorescence ratio was 1.01.
For CGATGAGAGC the value was 0.973; for AATCATTTAT, 0.975.
For TAACGGTAT the value was 1.56; for AAAGTAAAA, 0.905; for CGTCCATTAG, 1.06.
For CCAGGTGTAG the value was 2.68; for ACCCTTGCCG, 1.08.
For the sequence GTTAGTACGT, the switch fluorescence ratio came out at 1.01.
For GTATGAGATG the value was 0.974; for CGGTAGCAAC, 5.44; for CCCCAGCGG, 1.73.
For CCTGGTGTGG the value was 0.998; for CCTGACTCGG, 1.29.
For ATACTGTTGG the value was 1.01; for AGTGGTGAGA, 0.994; for GCTTGTGCAC, 0.947.
Take TCGTCGATTG: the switch fluorescence ratio was determined as 0.972.
